# ± gives the standard deviation of the averaged measurements. This is one part of the list.
# Test system: PfAP2-G AP2 domain (GST-tagged)
# Test: gcPBM binding intensity (ln(normalized median fluorescence intensity)); higher = stronger DNA binding
# In short: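 GST-tagged P. falciparum DNA-binding domains produced in E. coli were incubated for 1 h on an Agilent 4 × 180k array of primer-extended double-stranded 36-bp intergenic genomic probes with negative controls. Binding intensity is the highest Masliner-normalised natural-log median intensity across replicate spots of either probe orientation, with bound protein detected by Alexa488 anti-GST antibody at 488 nm.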
row,Sequence,gcPBM binding intensity (ln)
1,CACATTTCTGTAGTTGCATGTAGAAAAAAAAAAAAA [TGCATGCA_site810],10.2 ± 0.28
2,CGTAGCCGCACTAACACACACAAATATACGCAATCA [CACACA_site2898],10.2 ± 0.18
3,AAAAAAAAAAAAAATAATAAATAAATAAATAAATAA [GTGCAC_negctrl_site505],9.56 ± 0.17
4,AGGAAAAAAAGTAGCACACAAATATTTATAATATAT [CACACA_site2437],10.3 ± 0.2
5,AACATATTTATATACACACACATATTTATATGAAAT [CACACA_site6268],9.905 ± 0.021
6,GAGAGGATACATACATGTACATAAATATTTTATTTT [XGTACX_site5129],11.1 ± 0.67
7,AAAAATAAAAAAAAATTAAAATATATATATTTTGTT [TGCATGCA_negctrl_site102],9.34 ± 0.29
8,ATATTTTGGGTGTTGTTTTTTTTTAAAACTCTTTAA [CACACA_negctrl_site1255],10.3 ± 0.17
9,ATTAGTTTATATGAATGATTTTTCTTTTTTTTTTTT [CACACA_negctrl_site88],9.49 ± 0.3
10,TTACTATTTCACTGTGCATGCAACAAAAATCTATCT [TGCATGCA_site808],10.3 ± 0.31
11,ATTATATTAAAATATTCACACACTAACGTAAATCAT [CACACA_site8887],9.92 ± 0.14
12,TAAATACATAAATACACACACATATATATATATATA [CACACA_site5549],10.6 ± 1
13,TATCATTTTGAAGTATGTACTTATTTTATTAAAATA [XGTACX_site7784],11.3 ± 0.83
14,TTTTTCCAATCAGATGCATGTTACTATATTTGGTTC [TGCATGCA_site52],9.96 ± 0.014
15,CACCTCAATATTCACATACACACAATATCATCGAAG [CACACA_site1675],10.1 ± 0.2
16,TAGGTCATATTTTTTGCACACAAAAAAAAATATAAA [CACACA_site3380],10.3 ± 0.44
17,TGTATAAGGTTTTTACGTTTTGAAGGATGTATTGTT [CACACA_negctrl_site1245],10 ± 0.16
18,ATGTAATTGTATACATGTACGCAAACACAAAAGCAT [XGTACX_site6771],11.5 ± 0.88
19,GGGAGGATATTACACAGTACCCAGGAAATCTACGGA [XGTACX_site4874],10.9 ± 0.61
20,TATGTTCCGAAGGTTGTACACACATAGAAATATACA [CACACA_site9285],11.6 ± 0.8
21,TTTTTTTTTTTTGTAACATGCAAACAACAATATGGG [TGCATGCA_site695],10.3 ± 0.54
22,ATGAACTTATTTTAGTGTACTAAAAAATATGACTTC [XGTACX_site470],11.4 ± 1

row,Sequence,gcPBM binding intensity (ln)
1,AAGGAAAAAACAAATACACACAAAAACGCATTATAA [CACACA_site3466],10.2 ± 0.078
2,TACATAATTTTAATCACACACAAACAAACACATACA [CACACA_site194],10.5 ± 0.54
3,GTAAGTATATATAATAGTACATATATATTAATATAT [XGTACX_site4314],11 ± 0.55
4,TTTTGTTCATACAAATTGGAACAAGACAAAAATATA [XGTACX_negctrl_site327],10.4 ± 0.35
5,TATTCTAGTCTGCTTACACACATATTTATATTTATA [CACACA_site7432],10.13 ± 0.078
6,TGTTTACACTTTTTTTGTACACATAATTTTATTTGA [XGTACX_site3760],11.3 ± 0.81
7,AAAAAAAAAAAAAACACACACATATAACATATTTAA [CACACA_site6745],10.1 ± 0.3
8,CTATATATTTAAAAAAGTACAAATATAAAAATATAT [XGTACX_site676],11.4 ± 0.88
9,TAATATTTTATTTTTGTTGTGGATCCAAAAAAAAAA [CACACA_negctrl_site846],10.4 ± 0.4
10,TGTTTATCATATTTGTGTCCTCATTTTTTAGTATCA [XGTACX_site947],11.3 ± 0.74
11,AATATATGGTTTCATGATATAAAATTCAATTTAATG [GTGCAC_negctrl_site610],9.79 ± 0.3
12,TATATATATATATATGTATGCATGTCCTTTTTTATT [TGCATGCA_site344],11 ± 0.67
13,ATTTTTTTTAAACGAAGTACAATTTGTGCATTGGAA [XGTACX_site8109],11.2 ± 0.88
14,TTTTTTTTTTTTGTAGTGCAAATTAAAAATATATGT,10.2 ± 0.57
15,ATTTTTTTTTTTTTTTTTTTTTTTTTTTTTTTATGC [CACACA_negctrl_site1018],9.655 ± 0.007
16,TTATTTCTTCAGAAAAAATTAAAAAATTAAACAATA [CACACA_negctrl_site169],9.86 ± 0.11
17,TAATTTACACCTACGTGTACACACAAAAATATGTTT [XGTACX_site1868],11.6 ± 0.95
18,TTTATTATCAAGATTGCACACCCTTATGAACTTTTT [CACACA_site3166],10.15 ± 0.078
19,ACTATATTTCTATAATGTACAAAAATAAATCATATG [XGTACX_site3337],10.8 ± 0.39
20,ACCTATAAAAAATAATGTACAGGAAGAAATATAAGG [XGTACX_site5822],11.2 ± 0.57
21,ACAAAAAAAAAGGAAACACACAAAAAAAAAAAATAA [CACACA_site3523],9.875 ± 0.064
22,AGAAATATGTTGAAGCATTTATAATGTAGATATAAG [GTGCAC_negctrl_site640],9.68 ± 0.18
